Reference: a collection of fitness landscapes (doi:10.1126/science.1257360)
This is one part of the list.

B1: PhoQ; a variant is named by its letters at X, in order, P23837 (parent)
chain: MKKLLRLFFPLSLRVRFLLATAAVVLVLSLAYGMVALIGYSVSFDKTTFRLLRGESNLFYTLAKWENNKLHVELPENIDKQSPTMTLIYDENGQLLWAQRDVPWLMKMIQPDWLKSNGFHEIEADVNDTSLLLSGDHSIQQQLQEVREDDDDAEMTHSVAVNVYPATSRMPKLTIVVVDTIPVELKSSYMVWSWFIYVLSANLLLVIPLLWVAAWWSLRPIEALAKEVRELEEHNRELLNPATTRELTSLVRNLNRLLKSERERYDKYRTTLTDLTHSLKTPLXXLQXXLRSLRSEKMSVSDAEPVMLEQISRISQQIGYYLHRASMRGGTLLSRELHPVAPLLDNLTSALNKVYQRKGVNISLDISPEISFVGEQNDFVEVMGNVLDNACKYCLEFVEISARQTDEHLYIVVEDDGPGIPLSKREVIFDRGQRVDTLRPGQGVGLAVAREITEQYEGKIVAGESMLGGARMEVIFGRQHSAPKDE

Variants of: B1
Assay: enrichment ratio after two sorts for PhoP signalling (ratio (wild type AVST 3.29)); higher = more functional
Details: with PhoP (E. coli)

Variant	enrichment ratio
MQNP	≤ 0.25
MPYT	≤ 0.25
QQNH	12.7
GDLA	≤ 0.25
HIGF	≤ 0.25
RHHA	≤ 0.25
ECPN	≤ 0.25
HAYH	≤ 0.25
VSWF	≤ 0.25
PFER	≤ 0.25
KKFM	≤ 0.25
SVRA	≤ 0.25
MQDR	≤ 0.25
STNA	≤ 0.25
HFRG	≤ 0.25
QITK	≤ 0.25
GTCI	11.7
WVNP	≤ 0.25
INWM	≤ 0.25
VHRA	≤ 0.25
EHTT	≤ 0.25
ERVW	≤ 0.25
LQMK	≤ 0.25
KLEF	≤ 0.25

Variant	enrichment ratio
LINC	≤ 0.25
YMCW	≤ 0.25
VNCI	3.94
LTKI	≤ 0.25
RVIC	≤ 0.25
IGKW	≤ 0.25
SREA	≤ 0.25
DHGQ	≤ 0.25
VDMT	≤ 0.25
DNNP	≤ 0.25
GYLV	≤ 0.25
YIMV	0.477
RPFE	≤ 0.25
WYFG	≤ 0.25
WLGY	≤ 0.25
WELR	≤ 0.25
PVPD	≤ 0.25
YGFQ	≤ 0.25
ILFQ	≤ 0.25
QQSE	≤ 0.25
PWMM	≤ 0.25
RMFC	≤ 0.25
LKPR	≤ 0.25
HPEL	≤ 0.25

Variant	enrichment ratio
MGSK	≤ 0.25
SPNL	≤ 0.25
DNDC	≤ 0.25
ESKS	≤ 0.25
IPRP	≤ 0.25
NVAS	≤ 0.25
RAKA	≤ 0.25
SHMW	0.684
MGRD	≤ 0.25
PFEN	≤ 0.25
ELSQ	≤ 0.25
STEH	≤ 0.25
YDVE	≤ 0.25
PYIG	≤ 0.25
SRRA	≤ 0.25
SFHK	≤ 0.25
EWAI	≤ 0.25
RHNN	≤ 0.25
PHMW	≤ 0.25
DLKY	≤ 0.25
EAAQ	≤ 0.25
WYLG	≤ 0.25
LARE	≤ 0.25
PGRE	≤ 0.25

Variant	enrichment ratio
WTWP	≤ 0.25
NQAI	≤ 0.25
GIRC	≤ 0.25
VKWT	≤ 0.25
THCW	≤ 0.25
ETDE	≤ 0.25
GTSW	≤ 0.25
DAWE	≤ 0.25
HLLD	≤ 0.25
TDRY	≤ 0.25
LFRM	≤ 0.25
VVLR	≤ 0.25
VMVP	≤ 0.25
ISDM	≤ 0.25
QSFH	4.49
QCSC	≤ 0.25
PCCE	≤ 0.25
AKQC	≤ 0.25
PNAY	≤ 0.25
HFSP	≤ 0.25
ASQL	7.7
GQQF	≤ 0.25
APGV	≤ 0.25
SPNG	≤ 0.25

Variant	enrichment ratio
YYDM	≤ 0.25
VYQV	≤ 0.25
EFCN	≤ 0.25
MNGP	≤ 0.25
NYCS	≤ 0.25
THKS	≤ 0.25
TLGV	5.9
LQMW	≤ 0.25
LRYG	≤ 0.25
LKRH	≤ 0.25
RNFH	≤ 0.25
WNSF	≤ 0.25
YTNI	≤ 0.25
KSYC	≤ 0.25
YPTL	≤ 0.25
ANTN	0.26
KDRK	≤ 0.25
ADVD	≤ 0.25
PHLS	≤ 0.25
HITM	≤ 0.25
TRSA	≤ 0.25
TSFV	0.503
LVVN	≤ 0.25
QDVQ	≤ 0.25

Variant	enrichment ratio
HQGC	≤ 0.25
PLTG	≤ 0.25
NGCT	≤ 0.25
GHLV	≤ 0.25
MKIP	≤ 0.25
WFYG	≤ 0.25
GKKL	≤ 0.25
MCLK	8.35
FDFW	≤ 0.25
MGHF	0.887
NVIK	≤ 0.25
FWCD	≤ 0.25
QHHG	≤ 0.25
EFMV	≤ 0.25
RVYQ	≤ 0.25
PPCS	≤ 0.25
SVAG	9.11
DKMS	≤ 0.25
LGVA	≤ 0.25
FPYQ	≤ 0.25
SDCQ	7.71
DYKS	≤ 0.25
SYKQ	≤ 0.25
AMVN	1.14

Variant	enrichment ratio
DDIT	≤ 0.25
TFAM	18.6
RDNE	≤ 0.25
QCGP	≤ 0.25
VKYD	≤ 0.25
EIHL	≤ 0.25
YMRV	≤ 0.25
IKGT	≤ 0.25
QTFE	≤ 0.25
QSTM	5.74
LCFQ	≤ 0.25
AFPE	≤ 0.25
YMEN	≤ 0.25
FKMT	≤ 0.25
HDYP	≤ 0.25
GGNI	≤ 0.25
GIHH	≤ 0.25
WDEV	≤ 0.25
MHME	≤ 0.25
TRGS	≤ 0.25
HLTL	0.545
SWVK	≤ 0.25
DDKY	≤ 0.25
FLFQ	≤ 0.25

Variant	enrichment ratio
YFIH	≤ 0.25
DGCQ	≤ 0.25
YSYR	≤ 0.25
QRVR	≤ 0.25
NDQT	≤ 0.25
SRAF	≤ 0.25
MMRY	≤ 0.25
AINV	≤ 0.25
GWSH	≤ 0.25
RLPF	≤ 0.25
AFIP	≤ 0.25
YLEI	≤ 0.25
PYLF	≤ 0.25
IEWV	≤ 0.25
VGTW	≤ 0.25
QGCG	2.75
AELN	12.5
YSCM	12.8
NRMK	≤ 0.25
LART	≤ 0.25
HNCT	≤ 0.25
YHQL	≤ 0.25
TGTP	≤ 0.25
MKAM	≤ 0.25

Variant	enrichment ratio
IQNP	≤ 0.25
RQCS	≤ 0.25
FFTD	≤ 0.25
TPMI	≤ 0.25
QHDY	≤ 0.25
PIWT	≤ 0.25
SMQI	5.8
HTPK	≤ 0.25
IMWM	≤ 0.25
FWMT	≤ 0.25
ICRN	≤ 0.25
NRGS	≤ 0.25
ELDL	≤ 0.25
GFIT	≤ 0.25
FHCF	≤ 0.25
EGTI	≤ 0.25
VQRQ	≤ 0.25
AVLG	8.44
YGDE	≤ 0.25
NYQR	≤ 0.25
IGFF	≤ 0.25
MPSG	≤ 0.25
WEDN	≤ 0.25
WNRI	≤ 0.25

Variant	enrichment ratio
RQKM	≤ 0.25
QHFV	≤ 0.25
NHPH	≤ 0.25
DQFC	≤ 0.25
IINI	≤ 0.25
VTSA	≤ 0.25
LWST	≤ 0.25
VPFY	≤ 0.25
VLYR	≤ 0.25
KGVQ	≤ 0.25
YVPI	≤ 0.25
VMST	≤ 0.25
GYTK	≤ 0.25
IRFI	≤ 0.25
PCRC	≤ 0.25
VQVY	≤ 0.25
HMGH	≤ 0.25
YFQL	≤ 0.25
FAWV	≤ 0.25
HEPG	≤ 0.25
SEYG	2.2
VVRC	≤ 0.25
TMKQ	≤ 0.25
TQHD	9.89

Variant	enrichment ratio
YNWN	≤ 0.25
RAYN	≤ 0.25
SQQN	≤ 0.25
PYNM	≤ 0.25
RNAM	≤ 0.25
YNWA	≤ 0.25
NLCA	≤ 0.25
SGPS	≤ 0.25
LYQL	≤ 0.25
RTEV	≤ 0.25
GDMV	≤ 0.25
ESFK	≤ 0.25
VMFR	≤ 0.25
RITC	≤ 0.25
SSHI	1.12
ATIL	7.02
TDQI	≤ 0.25
MPDW	≤ 0.25
GARF	≤ 0.25
DGMS	≤ 0.25
MKVI	≤ 0.25
SKKT	≤ 0.25
HTQP	≤ 0.25
HHHE	≤ 0.25

Variant	enrichment ratio
IFTW	≤ 0.25
HHAW	≤ 0.25
YLWA	≤ 0.25
LFHW	≤ 0.25
TVMQ	5.08
PDRF	≤ 0.25
EHSW	≤ 0.25
FPVD	≤ 0.25
QYSM	≤ 0.25
WNVQ	≤ 0.25
WCYG	≤ 0.25
SPFA	≤ 0.25
WCSY	≤ 0.25
IAYN	≤ 0.25
TMWR	≤ 0.25
SSIL	12.3
AHLI	4.17
FYIA	≤ 0.25
RCKG	≤ 0.25
YIVR	≤ 0.25
KQVF	≤ 0.25
HWMK	≤ 0.25
VMHA	≤ 0.25
LIVN	≤ 0.25

Variant	enrichment ratio
TGLY	5.96
FNGR	≤ 0.25
DRTE	≤ 0.25
VWYQ	≤ 0.25
FNNL	≤ 0.25
YSFN	≤ 0.25
RRIF	≤ 0.25
FTSF	≤ 0.25
SKIQ	2.46
DDNG	≤ 0.25
DLCI	≤ 0.25
GWTR	≤ 0.25
DSMC	≤ 0.25
YYYE	≤ 0.25
HKEI	≤ 0.25
TNCY	≤ 0.25
GRCD	≤ 0.25
GRWD	≤ 0.25
